Experimental data: PMC9947773, “Modeling C3 glomerulopathies: C3 convertase regulation on an extracellular matrix surface” (Frontiers in Immunology, 2022)

Tests used:
Conditions in all cases: both partners purified
C3b [1] = target: T1, C3b (human, UniProt P01024 23-667; P01024 fragment); test: C3 convertase decay assay (C3CDA), elution and western blot for Bb; C3 convertase formed on C3b-coated MaxGel with FB + FD alone, washed, left to decay in assay buffer alone at 37°C for set times, washed; half-life from a second order polynomial fit
T1 construct: complement C3, human; beta chain of C3b; alpha' chain of C3b (alpha chain without C3a); Coated on MaxGel (ECM) in microtiter wells at 130 ug/ml; also called purified C3b; source: bought: Complement Technology Inc., purified

C3b [2] = target: T1, C3b; test: C3 convertase decay assay (C3CDA), elution and western blot for Bb; C3 convertase formed on C3b-coated MaxGel with FB + FD, washed, then decayed in assay buffer with Factor H or a Factor H variant at 37°C
T1 sequence (P01024 23-667, chain 1 of 2): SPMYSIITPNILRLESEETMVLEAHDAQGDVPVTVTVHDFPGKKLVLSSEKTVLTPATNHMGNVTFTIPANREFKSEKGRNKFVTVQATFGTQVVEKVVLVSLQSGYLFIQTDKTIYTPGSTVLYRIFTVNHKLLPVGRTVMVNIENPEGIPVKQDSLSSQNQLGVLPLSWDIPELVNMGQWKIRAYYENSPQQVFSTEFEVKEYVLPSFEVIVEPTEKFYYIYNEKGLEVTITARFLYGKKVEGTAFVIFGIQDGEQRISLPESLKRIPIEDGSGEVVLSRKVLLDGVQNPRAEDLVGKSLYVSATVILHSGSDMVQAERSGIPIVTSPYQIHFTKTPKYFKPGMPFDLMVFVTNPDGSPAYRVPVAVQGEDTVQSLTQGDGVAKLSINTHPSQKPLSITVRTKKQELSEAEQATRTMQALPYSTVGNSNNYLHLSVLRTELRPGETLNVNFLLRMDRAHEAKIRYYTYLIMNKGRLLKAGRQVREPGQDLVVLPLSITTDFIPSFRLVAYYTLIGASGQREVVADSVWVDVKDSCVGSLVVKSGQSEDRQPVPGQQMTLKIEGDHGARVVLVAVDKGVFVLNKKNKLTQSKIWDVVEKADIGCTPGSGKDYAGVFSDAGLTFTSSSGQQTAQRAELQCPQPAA
T1 sequence (P01024 749-1663, chain 2 of 2): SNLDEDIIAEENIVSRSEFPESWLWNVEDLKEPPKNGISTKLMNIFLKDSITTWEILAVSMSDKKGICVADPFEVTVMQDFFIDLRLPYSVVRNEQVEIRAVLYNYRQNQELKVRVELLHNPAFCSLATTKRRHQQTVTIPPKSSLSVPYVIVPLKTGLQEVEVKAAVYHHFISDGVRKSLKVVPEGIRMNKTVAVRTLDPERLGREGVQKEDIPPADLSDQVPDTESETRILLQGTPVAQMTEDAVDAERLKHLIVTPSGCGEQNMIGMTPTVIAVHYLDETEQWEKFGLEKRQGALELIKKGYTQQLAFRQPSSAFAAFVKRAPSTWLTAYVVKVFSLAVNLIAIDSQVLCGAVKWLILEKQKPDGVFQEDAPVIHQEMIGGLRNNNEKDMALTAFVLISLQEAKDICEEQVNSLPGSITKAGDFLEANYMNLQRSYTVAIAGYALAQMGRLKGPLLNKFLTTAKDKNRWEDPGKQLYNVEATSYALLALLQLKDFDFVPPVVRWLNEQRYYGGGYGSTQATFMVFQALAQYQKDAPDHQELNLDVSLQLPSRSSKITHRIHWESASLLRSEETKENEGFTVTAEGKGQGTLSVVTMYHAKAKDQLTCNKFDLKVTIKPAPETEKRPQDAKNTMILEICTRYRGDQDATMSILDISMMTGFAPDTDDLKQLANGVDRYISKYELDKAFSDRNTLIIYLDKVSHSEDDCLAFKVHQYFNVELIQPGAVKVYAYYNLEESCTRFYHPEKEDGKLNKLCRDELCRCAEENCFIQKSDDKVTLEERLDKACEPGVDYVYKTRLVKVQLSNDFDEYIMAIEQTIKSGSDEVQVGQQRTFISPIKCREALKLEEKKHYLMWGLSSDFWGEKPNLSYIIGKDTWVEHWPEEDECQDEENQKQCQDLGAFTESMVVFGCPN

C3b [3] = target: T1, C3b; test: C3 convertase formation assay (C3CFA), elution and western blot for Bb; C3b (130 ug/ml) coated on MaxGel in microtiter wells; FB 10.5 ug/ml + FD 0.1 ug/ml alone, 10 min at 37°C in assay buffer (phosphate, 75mM NaCl, 10mM MgCl2, 0.05% Tween20, 2% BSA, pH 7.0); washed x3; eluted with 10mM EDTA, 1% SDS

B1: Recombinant Factor B p.Phe286Leu, uncleaved (in C3bB) (natural protein, human, UniProt P00751 26-764, looked up)
chain: TPWSLARPQGSCSLEGVEIKGGSFRLLQEGQALEYVCPSGFYPYPVQTRTCRSTGSWSTLKTQDQKTVRKAECRAIHCPRPHDFENGEYWPRSPYYNVSDEISFHCYDGYTLRGSANRTCQVNGRWSGQTAICDNGAGYCSNPGIPIGTRKVGSQYRLEDSVTYHCSRGLTLRGSQRRTCQEGGSWSGTEPSCQDSFMYDTPQEVAEAFLSSLTETIEGVDAEDGHGPGEQQKRKIVLDPSGSMNIYLVLDGSDSIGASNLTGAKKCLVNLIEKVASYGVKPRYGLVTYATYPKIWVKVSEADSSNADWVTKQLNEINYEDHKLKSGTNTKKALQAVYSMMSWPDDVPPEGWNRTRHVIILMTDGLHNMGGDPITVIDEIRDLLYIGKDRKNPREDYLDVYVFGVGPLVNQVNINALASKKDNEQHVFKVKDMENLEDVFYQMIDESQSLSLCGMVWEHRKGTDYHKQPWQAKISVIRPSKGHESCMGAVVSEYFVLTAAHCFTVDDKEHSIKVSVGGEKRDLEIEVVLFHPNYNINGKKEAGIPEFYDYDVALIKLKNKLKYGQTIRPICLPCTEGTTRALRLPPTTTCQQQKEELLPAQDIKALFVSEEEKKLTRKEVYIKNGDKKGSCERDAQYAPGYDKVKDISEVVTPRFLCTGGVSPYADPNTCRGDSGGPLIVHKRSRFIQVGVISWGVVDVCKNQKRQKQVPAHARDFHINLFQVLPWLKEKLQDEDLGFL
notes: signal peptide in the construct; complement factor B, human; the DNA coding region was synthesized and the protein purified from the culture supernatant; variant in the VWA subunit of Bb; Found on C3b as uncleaved C3bB; also called FB p.Phe286Leu; source: Expi 293 cells, purified from culture supernatant (Ni2+ column); not shown: His-tag, C-terminal, kept
binding result (C3b [1]): binds

B2: Bb fragment of recombinant FB p.Asp279Gly (domain or fragment, human, UniProt P00751 260-764, looked up)
chain: KIVLDPSGSMNIYLVLDGSGSIGASNFTGAKKCLVNLIEKVASYGVKPRYGLVTYATYPKIWVKVSEADSSNADWVTKQLNEINYEDHKLKSGTNTKKALQAVYSMMSWPDDVPPEGWNRTRHVIILMTDGLHNMGGDPITVIDEIRDLLYIGKDRKNPREDYLDVYVFGVGPLVNQVNINALASKKDNEQHVFKVKDMENLEDVFYQMIDESQSLSLCGMVWEHRKGTDYHKQPWQAKISVIRPSKGHESCMGAVVSEYFVLTAAHCFTVDDKEHSIKVSVGGEKRDLEIEVVLFHPNYNINGKKEAGIPEFYDYDVALIKLKNKLKYGQTIRPICLPCTEGTTRALRLPPTTTCQQQKEELLPAQDIKALFVSEEEKKLTRKEVYIKNGDKKGSCERDAQYAPGYDKVKDISEVVTPRFLCTGGVSPYADPNTCRGDSGGPLIVHKRSRFIQVGVISWGVVDVCKNQKRQKQVPAHARDFHINLFQVLPWLKEKLQDEDLGFL
notes: complement factor B, human; Bb fragment cut from the recombinant variant by Factor D on C3b; variant in the VWA subunit of Bb; also called D279G; source: Factor B variant from Expi 293 cells, purified from culture supernatant (Ni2+ column); cut by Factor D in the assay; not shown: His-tag, C-terminal, kept
t1/2 of C3bBb decay with FH (C3b [2]): 6.6 min
t1/2 of C3bBb decay (C3b [1]): > 10 min
fold C3 convertase formation against CA (WT FB) (C3b [3]): ~1.5 fold
